According to PMC4336329 (PLoS ONE, 2015):
The campaign covered roughly 310,000 compounds. About 14,000 (4.5%) showed an effect of 50% or more. The effect is printed as a negative number. The list shows a part of the results.

Biological target: human ether-à-go-go-related gene (hERG) potassium channel (human, UniProt Q12809)
Experiment: primary screen, population patch clamp on CHO cells stably expressing hERG
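Also: peak tail current of the secondary pulse compared with the same well before compound.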

human ether-à-go-go-related gene (hERG) potassium channel, sequence (Q12809 whole entry, looked up): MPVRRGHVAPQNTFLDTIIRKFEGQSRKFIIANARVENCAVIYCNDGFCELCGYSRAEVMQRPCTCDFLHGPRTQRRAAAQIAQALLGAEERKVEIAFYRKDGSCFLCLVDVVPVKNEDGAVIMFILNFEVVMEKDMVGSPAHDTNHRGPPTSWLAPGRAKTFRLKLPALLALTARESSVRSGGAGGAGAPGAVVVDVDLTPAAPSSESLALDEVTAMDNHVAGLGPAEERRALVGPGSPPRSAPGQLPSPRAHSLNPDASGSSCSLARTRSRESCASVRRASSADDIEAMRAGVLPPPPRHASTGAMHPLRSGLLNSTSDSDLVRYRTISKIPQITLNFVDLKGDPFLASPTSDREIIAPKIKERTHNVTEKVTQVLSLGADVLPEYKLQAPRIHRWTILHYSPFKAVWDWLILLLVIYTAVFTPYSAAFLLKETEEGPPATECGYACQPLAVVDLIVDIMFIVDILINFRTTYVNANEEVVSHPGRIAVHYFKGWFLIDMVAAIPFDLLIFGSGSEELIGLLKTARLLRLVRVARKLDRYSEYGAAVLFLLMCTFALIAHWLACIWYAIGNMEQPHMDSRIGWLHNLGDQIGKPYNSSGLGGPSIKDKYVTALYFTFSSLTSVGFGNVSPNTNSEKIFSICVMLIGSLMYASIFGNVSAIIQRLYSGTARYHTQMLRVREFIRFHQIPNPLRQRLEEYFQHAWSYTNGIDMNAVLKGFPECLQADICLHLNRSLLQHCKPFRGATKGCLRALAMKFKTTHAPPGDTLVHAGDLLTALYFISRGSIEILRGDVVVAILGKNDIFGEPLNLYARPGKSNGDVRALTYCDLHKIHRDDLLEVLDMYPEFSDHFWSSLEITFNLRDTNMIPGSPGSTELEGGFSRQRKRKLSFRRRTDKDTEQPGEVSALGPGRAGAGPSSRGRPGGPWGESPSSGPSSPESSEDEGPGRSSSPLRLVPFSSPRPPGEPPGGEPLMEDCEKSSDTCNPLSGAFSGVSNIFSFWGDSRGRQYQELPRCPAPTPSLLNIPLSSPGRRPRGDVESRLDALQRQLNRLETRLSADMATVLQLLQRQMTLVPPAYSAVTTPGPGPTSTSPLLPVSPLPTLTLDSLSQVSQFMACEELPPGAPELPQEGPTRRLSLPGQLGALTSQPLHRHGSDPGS

Row | Compound | hERG current change (%, negative = inhibition) at 10uM [%]
1 | COc1cc2c(cc1OC)C1CC(=O)C(CC(C)C)CN1CC2 (centres unmarked) | 3.96
2 | CC(C)C[C@H](NC(=O)c1nc[nH]c1C(=O)NC1CCN(C(=O)OC(C)(C)C)CC1)C(=O)OC(C)(C)C | -10.8
3 | Cc1ccc(S(=O)(=O)c2nc(-c3ccccc3Br)oc2N(C)C)cc1 | -14.3
4 | COc1ccc(Nc2nc3ccccc3nc2NS(=O)(=O)c2cccs2)cc1 | 10.8
5 | O=C(CCCn1c(=S)[nH]c2cc3c(cc2c1=O)OCO3)N1CCN(c2ncccn2)CC1 | -5.36
6 | O=C(O)Cn1nnnc1SCC(=O)Nc1ccc(F)cc1F | 4.49
7 | Nn1c(-c2ccco2)n[nH]c1=S | 20.6
8 | N#Cc1c(NC(=O)CSc2ncn[nH]2)sc2c1CCCCC2 | 0.538
9 | CNS(=O)(=O)c1cc(-c2nnc(Nc3ccc(CC(N)=O)cc3)c3ccccc23)ccc1C | 7.68
10 | Cc1c(C)n(CCCN(C)C)c2ncnc(Nc3ccc(F)cc3)c12 | -50.8
11 | CC1=CC(C)(C)N2C(=O)C3(C(C#N)=C(N)OC4=C3C(=O)CC(C)(C)C4)c3c(C)c(C)cc1c32 (centres unmarked) | -9.96
12 | COCCCNC(=O)Cc1ccc(-n2c(C)nc3cccnc32)cc1 | 14.8
13 | CC(C)N(CCCNC(=O)C1CCN(S(=O)(=O)N2CCOCC2)CC1)Cc1ccccc1 | 3.35
14 | Cc1[nH]c(=O)c(C#N)cc1-c1ccccc1 | -7.98
15 | COC(=O)c1cc(NC(=O)c2c(Cl)cnn2C)cc(C(=O)OC)c1 | -2.32
16 | Cc1cc(C)c[n+](-c2nc3ccccc3nc2[N-]S(=O)(=O)c2cccs2)c1 | -3.11
17 | O=C(NCc1ccc(F)cc1)C(c1ccncc1)N(C(=O)c1csnn1)C1CC1 (centres unmarked) | -18.8
18 | Cc1c(Cl)cccc1NC(=O)Cn1nnc(C(=O)NCc2cccs2)c1N | 10
19 | COc1ccc(-c2c[n+](CC(=O)c3ccccc3)c3n2CCCCC3)cc1.[Br-] | 11.7
20 | COC(=O)c1cc(NC(=O)C2COc3ccccc3O2)ccc1Cl (centres unmarked) | -18.8
21 | CC(CC(=O)N1CCc2ccccc21)S(=O)(=O)c1ccc2c(c1)NC(=O)CO2 (centres unmarked) | 0.235
22 | O=C(O)C1CCN(c2ccc(S(=O)(=O)N3CCOCC3)cc2[N+](=O)[O-])CC1 | 5.34
23 | O=C(O)c1cc(-c2cccs2)nn1-c1ccccc1 | 11.7
